{
  "source": "PubChem BioAssay (Tox21)",
  "note": "Several values for one entry are separate records, joined by “and”; a condition that tells them apart may be missing. Equal entries are not always repeated. The shares of active, inactive and inconclusive entries below differ from those in the screen. A potency beside an inconclusive call is a rough fit, not a confirmed value. Activity calls are given as the source filed them. The call rests on the fitted dose curve; in most records, active means well fitted cell-killing curve with a large enough effect in the repeat runs; inconclusive means weak or mixed curves, or effect the other way; inactive means no such curve, though single readings can be large or run the other way. Potency means the concentration at half of the fitted maximal effect; tags describe the fitted curve by direction and shape.",
  "data": [
    {"assay": "Caspase-3/7 induction in CHO-K1 cells by small molecules, qHTS cell viability counter screen (AID 1346979); further: nearly all actives have a fitted effect of over 35% in size", "details": "CellTiter-Fluor fluorescence, 17 h; series mostly up to 92.4 µM", "text": "National Center for Advancing Translational Sciences [NCATS]\nNIH Chemical Genomics Center [NCGC]\nU.S. Environmental Protection Agency [EPA]\nNational Institutes of Environmental Health Sciences [NIEHS]\nNational Toxicology Program [NTP]\nU.S. Food and Drug Administration [FDA]\nApoptosis is a process of programmed cell death and plays a central role in the development of multicellular organisms. It is a highly regulated process and induces cell death by activating caspases, which are the members of cysteine aspartic acid-specific protease (caspase) family. Caspases involved in apoptosis are classified by their mechanism of action as initiator caspases (caspase-2, -8, -9 and -10) and executioner caspases (caspase-3, -6, and -7). Inhibition of apoptosis results in number of cancers, autoimmune diseases, inflammatory diseases and viral infection. To identify small molecule compounds that induce apoptosis, a homogeneous, luminescent Caspase-Glo 3/7 assay was used. Wild type CHO-K1 cells were used to screen Tox21 libraries for identifying caspase-3/7 activity inducers. Also cytotoxicity of the compounds was tested in parallel by measuring the cell viability using CellTiter-Fluor assay system in the same wells.\nTox21 Assay Protocol Summary:\nCHO-K1 cells were dispensed at 1,500 per well in 5uL of culture medium into white solid bottom 1536-well plates (Corning Life Sciences, Corning, NY) using a Multidrop Combi (Thermo Scientific, Waltham, MA) dispenser. The assay plates were incubated at 37 C and 5% CO2 for 5hr, and then 23nL of compounds dissolved in DMSO and positive control were transferred using a Pintool station (Wako, San Diego, CA). The assay plates were incubated at 37C and 5% CO2 for 17hr. For cytotoxicity read, after 16hr incubation at 37C, 1uL CellTiter-Fluor reagent (Promega Corporation, Madison, WI) was added to each well of the assay plates using Flying Reagent Dispenser (FRD, Aurora Discovery, San Diego, CA). After 1hr incubation at 37C and 5% CO2, the fluorescence signal was quantified using a ViewLux plate reader (PerkinElmer, Shelton, CT).", "values": [
      {"smiles": "CCCCC(CC)COC(=O)/C=C\\C(=O)OCC(CC)CCCC", "note": "(stereo not given)", "Potency": "inactive"},
      {"smiles": "Nc1ccc(NC(=O)c2ccc(N)cc2)cc1", "Potency": "inactive"},
      {"smiles": "CC1(C)NC(=O)N(c2ccc([N+](=O)[O-])c(C(F)(F)F)c2)C1=O", "Potency": "inconclusive: 30.6 µM [cytotoxic, partial curve] and inconclusive: 26.6 µM [cytotoxic, partial curve]"},
      {"smiles": "O=C(/C=C/c1ccc(O)c(O)c1)O[C@@H](C(=O)O)[C@@H](OC(=O)/C=C/c1ccc(O)c(O)c1)C(=O)O", "Potency": "inconclusive: 76.8 µM [cytotoxic, single point]"},
      {"smiles": "CCOC(=O)c1ccc(C2CCC(NC[C@H](O)COc3ccc(O)c(NS(C)(=O)=O)c3)CC2)cc1", "note": "(stereo not given in full)", "Potency": "inconclusive: 63.3 µM [cytotoxic, single point]"},
      {"smiles": "O=C(O)C[C@H](O)C[C@H](O)/C=C/c1c(C2CC2)nc2ccccc2c1-c1ccc(F)cc1", "Potency": "inconclusive: 3.66 µM [cytotoxic, single point]"},
      {"smiles": "Oc1cccc2ccccc12", "Potency": "inactive"},
      {"smiles": "O=C(O)CN1C(=O)c2cccc3cccc(c23)C1=O", "Potency": "inconclusive: 13.3 µM [rising, partial curve]"},
      {"smiles": "CCCCCCC(C)(C)S", "Potency": "inactive"},
      {"smiles": "COc1ccc2[nH]c(S(=O)Cc3ncc(C)c(OC)c3C)nc2n1", "note": "(stereo not given)", "Potency": "inconclusive: 33.5 µM [cytotoxic, single point]"},
      {"smiles": "CS(=O)(=O)Nc1ccc([N+](=O)[O-])cc1Oc1ccccc1", "Potency": "active: 54.5 µM and inconclusive: 29.8 µM [cytotoxic, partial curve]"},
      {"smiles": "O=C1c2ccccc2C(=O)c2c1ccc(O)c2O", "Potency": "active: 23.7 µM"},
      {"smiles": "CC(CN)CCCN", "note": "(stereo not given)", "Potency": "inconclusive: 2.17 µM [cytotoxic, partial curve]"},
      {"smiles": "Cc1c(C)c([N+](=O)[O-])c(C(C)(C)C)c([N+](=O)[O-])c1C", "Potency": "inactive"},
      {"smiles": "Nc1ccc(Cl)c(N)c1", "Potency": "inconclusive: 77.2 µM [cytotoxic, partial curve, poor fit]"},
      {"smiles": "O=C(O)Cc1ccc2c(c1)C(=O)c1ccccc1CO2", "Potency": "inactive"},
      {"smiles": "O=[N+]([O-])C1(Br)COCOC1", "Potency": "active: 54.5 µM"},
      {"smiles": "CCCCCCCCCCCCCCCCCCOCC(O)CO", "note": "(stereo not given)", "Potency": "inconclusive: 29.8 µM [rising, single point]"},
      {"smiles": "Cc1cccc(S(=O)(=O)O)c1C", "Potency": "inconclusive: 68.6 µM [rising, partial curve, poor fit]"},
      {"smiles": "O=C(Nc1ccccc1)c1ccccc1O", "Potency": "inconclusive: 68.6 µM [cytotoxic]"},
      {"smiles": "CC(=O)[C@H]1CC[C@H]2[C@@H]3C=CC4=CC(=O)CC[C@@]4(C)[C@@H]3CC[C@]12C", "Potency": "inconclusive: 33.5 µM [cytotoxic, single point]"},
      {"smiles": "C=C(C)C(=O)OCCCCCCCCCC", "Potency": "active: 54.9 µM"},
      {"smiles": "COCC(=O)O", "Potency": "inconclusive: 70.5 µM [cytotoxic]"},
      {"smiles": "Cc1ccc(-n2nc(C(C)(C)C)cc2NC(=O)Nc2ccc(OCCN3CCOCC3)c3ccccc23)cc1", "Potency": "inconclusive: 33.5 µM [cytotoxic, single point]"},
      {"smiles": "NCCCCCCN", "Potency": "active: 2.75 µM and active: 19.3 µM"},
      {"smiles": "CC(C)(C)c1cc(CO)cc(C(C)(C)C)c1O", "Potency": "inconclusive: 69.9 µM [cytotoxic, single point]"},
      {"smiles": "COc1ccc(C(=O)c2ccccc2O)c(O)c1", "Potency": "inconclusive: 68.4 µM [cytotoxic]"},
      {"smiles": "Cc1ccc(C(C)c2ccc(C)c(C)c2)cc1C", "Potency": "inactive"},
      {"smiles": "CCCCCCCCCCCCSC", "Potency": "inactive"},
      {"smiles": "COCCOC(=O)C1=C(C)NC(C)=C(C(=O)OC/C=C/c2ccccc2)C1c1cccc([N+](=O)[O-])c1", "note": "(stereo not given)", "Potency": "active: 26.6 µM"},
      {"smiles": "CCCOC(=O)c1ccccc1", "Potency": "inconclusive: 26.6 µM [cytotoxic, partial curve]"},
      {"smiles": "Cn1c(=O)c2c(ncn2CCO)n(C)c1=O", "Potency": "inactive"},
      {"smiles": "Nc1nc(Cl)nc2c1ncn2[C@@H]1O[C@H](CO)[C@@H](O)[C@@H]1F", "Potency": "inconclusive: 26.6 µM [cytotoxic, partial curve]"},
      {"smiles": "CC(=O)c1ccc2ccc3ccccc3c2c1", "Potency": "inconclusive: 68.2 µM [cytotoxic, single point]"},
      {"smiles": "CC/C=C\\C/C=C\\C/C=C\\CCCCCCCC(=O)OC", "Potency": "active: 61.1 µM"},
      {"smiles": "O=C(OCC(O)CO)c1ccccc1Nc1ccnc2cc(Cl)ccc12", "note": "(stereo not given)", "Potency": "inconclusive: 33.5 µM [cytotoxic]"},
      {"smiles": "CCCOC(=O)c1c(Cl)c(Cl)c(Cl)c(Cl)c1C(=O)OCCC", "Potency": "inconclusive: 68.6 µM [cytotoxic, single point]"},
      {"smiles": "C=CCCCCCCCCCC", "Potency": "inactive"},
      {"smiles": "NC(=O)N(O)[C@@H]1C=C[C@H](Oc2cccc(Oc3ccc(F)cc3)c2)C1", "Potency": "active: 68.6 µM"},
      {"smiles": "COc1cc(C(=O)N2CCOCC2)cc(OC)c1OC", "Potency": "inconclusive: 29.8 µM [rising, partial curve]"}
    ]}
  ]
}
